In paper PMC4336329 (PLoS ONE, 2015):
In all, about 310,000 compounds went through this assay and about 14,000 (4.5%) showed an effect of 50% or more. Effects have a minus sign here. The list shows a part of the results.

Molecular target: human ether-à-go-go-related gene (hERG) potassium channel (human, UniProt Q12809)
Assay: primary screen, population patch clamp on CHO cells stably expressing hERG
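Note: peak tail current of the secondary pulse compared with the same well before compound.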

Sequence of human ether-à-go-go-related gene (hERG) potassium channel (Q12809 whole entry, looked up): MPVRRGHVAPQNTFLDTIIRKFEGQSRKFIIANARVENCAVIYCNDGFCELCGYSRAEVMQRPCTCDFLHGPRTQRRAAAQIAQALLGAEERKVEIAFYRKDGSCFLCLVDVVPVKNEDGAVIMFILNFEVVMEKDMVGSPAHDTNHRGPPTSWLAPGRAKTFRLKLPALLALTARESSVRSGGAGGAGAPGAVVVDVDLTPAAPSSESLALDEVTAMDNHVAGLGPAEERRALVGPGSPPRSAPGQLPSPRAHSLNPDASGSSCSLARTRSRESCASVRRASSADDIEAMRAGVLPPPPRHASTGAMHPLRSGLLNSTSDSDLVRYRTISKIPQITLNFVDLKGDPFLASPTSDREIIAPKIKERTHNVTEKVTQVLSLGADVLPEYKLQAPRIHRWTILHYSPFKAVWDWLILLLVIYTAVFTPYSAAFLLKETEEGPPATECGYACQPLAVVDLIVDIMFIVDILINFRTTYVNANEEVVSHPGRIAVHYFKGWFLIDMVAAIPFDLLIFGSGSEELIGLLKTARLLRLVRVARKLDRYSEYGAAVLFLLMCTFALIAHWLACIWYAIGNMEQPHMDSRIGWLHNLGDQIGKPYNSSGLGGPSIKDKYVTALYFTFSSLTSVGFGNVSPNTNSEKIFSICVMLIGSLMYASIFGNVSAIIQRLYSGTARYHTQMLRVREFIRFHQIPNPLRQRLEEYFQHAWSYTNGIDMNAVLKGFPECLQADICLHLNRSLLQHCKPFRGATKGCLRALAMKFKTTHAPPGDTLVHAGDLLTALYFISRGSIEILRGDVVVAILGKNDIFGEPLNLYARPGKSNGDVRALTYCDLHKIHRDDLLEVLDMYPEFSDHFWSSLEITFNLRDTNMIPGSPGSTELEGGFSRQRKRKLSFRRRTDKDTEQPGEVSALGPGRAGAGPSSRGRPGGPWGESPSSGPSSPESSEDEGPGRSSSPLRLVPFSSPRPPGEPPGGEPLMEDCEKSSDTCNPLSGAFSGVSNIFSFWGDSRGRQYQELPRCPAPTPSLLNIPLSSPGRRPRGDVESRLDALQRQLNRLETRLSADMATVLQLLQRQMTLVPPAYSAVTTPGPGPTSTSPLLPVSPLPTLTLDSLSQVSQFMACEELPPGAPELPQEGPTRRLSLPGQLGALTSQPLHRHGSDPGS

| SMILES | hERG current change (%, negative = inhibition) at 10uM [%] |
| --- | --- |
| CCCn1c(SCC(=O)c2cc(OC)ccc2OC)nnc1-c1ccco1 | -12.5 |
| O=C(CCNS(=O)(=O)c1cccs1)N1CCCCCC1 | -8.32 |
| Cc1ccc(SCC(=O)NN2C(=O)c3ccccc3C2=O)cc1 | -5.8 |
| CCOc1c(Cl)cc(C2NC(=O)NC(C)=C2C(=O)NCc2ccccc2)cc1OC (stereo not drawn) | -6.49 |
| CSc1ccccc1NC(=O)c1cnc2sc(C)cn2c1=O | 4.47 |
| CCOc1ccc(C(=O)COC(=O)C2COc3ccccc3O2)cc1 (stereo not drawn) | 15.3 |
| N#CCCN(C(=O)COC(=O)CCNS(=O)(=O)c1ccccc1)c1ccccc1 | -4.77 |
| O=C(/C=C\c1ccc2c(c1)OCO2)CC1(O)C(=O)Nc2ccccc21 (stereo not drawn) | -0.111 |
| O=C(CN1C(=O)S/C(=C\C=C\c2ccccc2)C1=O)Nc1ccccc1C(=O)O | 3.17 |
| CCOC(=O)Cc1cc(=O)n2[nH]c(-c3ccccc3)cc2n1 | 4.41 |
| Cl.OC(CN1CCCCCC1)CN(c1ccccc1)c1ccccc1 (stereo not drawn) | -71.8 |
| CCc1ccccc1OCCCCN1CCCC1.O=C(O)C(=O)O | -40 |
| COCC(=O)NCc1nc2ccccc2[nH]1 | -3.75 |
| CCc1nc2ccccc2n1CCC(C)C | -5.17 |
| C=CCN1C(=O)NC(=O)C(CCc2ccncc2)(CCc2ccncc2)C1=O | -41.8 |
| COc1ccccc1N1CC(C)(C)C(=O)N(C(=O)c2c(F)cccc2Cl)C1=S | 15.1 |
| CCCCNC(=O)C(C#N)c1nc2ccccc2nc1N1CCN(c2ccccc2F)CC1 (stereo not drawn) | 4.79 |
| CC(C)c1cc(C(C)C)n2nc(N)nc2n1 | 8.66 |
| O=C(NCc1ccncc1)C(=O)NCC(c1ccco1)N1CCN(c2ccccc2)CC1 (stereo not drawn) | -2.2 |
| COc1ccc(-n2ncc(N(C)n3cccc3)c(Cl)c2=O)cc1 | 8.9 |
| Cc1cc(NC(=O)C(C)SCC(=O)N(C)CC(=O)Nc2ccc(Br)cc2C)no1 (stereo not drawn) | -1.15 |
| CCCn1nc2cc(C(=O)NCc3ccc4c(c3)OCO4)ccc2c1OCC | -8.03 |
| CCc1cc(=O)oc2cc(C)cc(OC(C)C(=O)NCc3cccnc3)c12 (stereo not drawn) | -32.9 |

| SMILES | hERG current change (%, negative = inhibition) at 10uM [%] |
| --- | --- |
| CCOC(=O)c1cc(S(=O)(=O)N2CCC(C)CC2)cn1C | 17.8 |
| Cc1ccc(NC(=O)CN2C(=O)NC(Cc3ccccc3)C2=O)c(Br)c1 (stereo not drawn) | -5.95 |
| N#CCSc1n[nH]c2nc3c(c(=O)n12)C1(CCCCC1)Cc1ccccc1-3 | 10.9 |
| CCN(CC)CCN(Cc1cc2cc3c(cc2[nH]c1=O)OCO3)C(=S)NCC1CCCO1 (stereo not drawn) | -34.9 |
| C=CCOc1ccccc1CNCc1ccc(F)cc1.Cl | -33.3 |
| Cc1cccc(C)c1OCC(=O)NCc1nnc(SCC(=O)NC2CCCCC2)n1C | -0.306 |
| C#C[C@]1(O)CCC2C3CCC4=CC(=O)CC[C@@H]4C3CC[C@@]21C (stereo partly drawn) | -29.1 |
| COCCn1c(=O)[nH]c2cc(C(=O)Nc3cccc(F)c3)ccc2c1=O | 9.25 |
| CCCOc1ccc(-c2c(C(=O)N/N=C(\C)COc3ccccc3)nnn2-c2nonc2N)cc1 | 0.51 |
| Cn1cc(CN(CCO)Cc2cccs2)c(-c2cccc(Cl)c2)n1 | -21 |
| C=CCNC(=O)Cc1ccc(S(=O)(=O)N2CCOCC2)s1 | 7.7 |
| CN(CC(=O)Nc1ccc(F)cc1)C(=O)CSc1nccn1C | -17 |
| Cc1ccc(OCC(COCc2ccccc2)NC(C)C)cc1.O=C(O)C(=O)O (stereo not drawn) | -13.9 |
| O=C(N/N=C/c1c[nH]c2ccccc12)c1ccc(O)c(O)c1 | 25.7 |
| CC(CCc1ccccc1)N1CCN(Cc2ccccc2)CC1 (stereo not drawn) | -75.2 |
| CCOP(=O)(c1ccccc1)C(O)c1ccc(Br)cc1 (stereo not drawn) | 2.86 |
| Cn1c(=O)[nH]c(=O)c2c1nc(N1CCN(c3ccccc3)CC1)n2CCSc1ncccn1 | -18.9 |
| O=C(NN1C(=O)C2C(C1=O)C1C=CC2C12CC2)c1ccncc1 (stereo not drawn) | 11.8 |
| CC(C)CN1C(=O)N(c2ccc(Cl)cc2)C(C)(O)CC1(C)C (stereo not drawn) | 32.7 |
| COc1ccc(OCC(=O)NCCNC(=O)c2ccncc2)cc1 | -17 |
| Cc1ccc(C2NC(=O)c3sc(=S)n(-c4ccccc4)c3N2)cc1 (stereo not drawn) | 48.7 |
| Cc1nc2ccccc2c(=O)n1Cc1ccco1 | -7.41 |
